{
  "source": "PubChem BioAssay AID2546",
  "about": "(National Center for Advancing Translational Sciences (NCATS), 2010)",
  "note": "Out of some 310,000 compounds screened, about 11,000 (3.5%) were called active. This list was built around the results that the source calls inconclusive (neither active nor inactive); the mix of calls is not that of the screen. Calls come from the whole dose curve; as a rule, active = well fitted inhibition curve with a large enough effect; inconclusive = small, poorly fitted or top-dose-only effect, or effect the other way; inactive = flat fitted curve, though single readings scatter. No potency is given beside an inconclusive call; the fits are too rough. % is set by controls: 0 for no effect and ±100 for the full control effect; potency is the fitted concentration of half-maximal effect; tags give direction and shape of the fitted curve.",
  "data": [
    {"assay": "VP16 counterscreen qHTS for inhibitors of ROR gamma transcriptional activity;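 note: Gal4-VP16 expression switched on by copper sulfate through the metallothionein promoter; nearly all actives have a fitted effect of over 50% in size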", "conditions": "Drosophila S2 Gal4-VP16 UAS-luciferase, luminescence, 20 h; activity, negative = inhibition: at 53.6 µM (top of the series)", "values": [
      {"smiles": "Cc1ccc(-c2ccc(/C=N/c3ncn[nH]3)o2)cc1Cl", "Potency": "inconclusive [inhibitor, single point]"},
      {"smiles": "CCc1ccc(-c2nc(CSCC(=O)NCc3ccco3)c(C)o2)cc1", "Potency": "active: 2 µM"},
      {"smiles": "CCn1c(SCc2nc3ccccc3c(=O)[nH]2)nnc1C(C)NC(=O)c1ccccc1F", "note": "(stereo not given)", "activity, negative = inhibition": "inactive: 1.43%"},
      {"smiles": "Cc1ccoc1C(=O)Nc1cccc(Oc2ccccc2)c1", "Potency": "inconclusive [inhibitor, single point]"},
      {"smiles": "C/C(=N\\NC(=O)c1cc(C)nc2ccccc12)c1ccco1", "activity, negative = inhibition": "inactive: 4.32%"},
      {"smiles": "O=C(CSc1n[nH]c(-c2ccc(S(=O)(=O)NC3CCCCC3)cc2)n1)N1CCCC1", "Potency": "inconclusive [inhibitor, single point]"},
      {"smiles": "O=C1NC(=O)c2cc([N+](=O)[O-])cc3cccc1c23", "Potency": "inconclusive [inhibitor, single point]"},
      {"smiles": "O=C(Nc1nc2c(s1)CCCC2=O)c1cnccn1", "Potency": "inconclusive [inhibitor, full curve]"},
      {"smiles": "COc1ccc(Cc2n[nH]c(=S)n2-c2ccc3c(c2)OCCO3)cc1", "activity, negative = inhibition": "inactive: -1.16%"},
      {"smiles": "COc1ccc(C)cc1NC(=O)CN1CCN(C/C=C/c2ccccc2)CC1", "Potency": "inconclusive [inhibitor, single point]"},
      {"smiles": "CSc1nc(Cl)cc(Nc2ccc(O)cc2)n1", "Potency": "inconclusive [activator, full curve, poor fit]"},
      {"smiles": "CCOc1ccc(-c2nc(=S)[nH][nH]2)cc1", "Potency": "active: 22.4 µM"},
      {"smiles": "CCCCCn1c(C(Cc2ccccc2)NC(=O)COC)nc2ccccc21", "note": "(stereo not given)", "Potency": "inconclusive [inhibitor, single point]"},
      {"smiles": "CC(C)Cn1c(-c2ccc(Br)cc2)c[nH]c1=S", "Potency": "active: 1.58 µM"},
      {"smiles": "O=C(CCN1CCN(CCO)CC1)Nc1ccc(OCc2ccccc2)cc1", "activity, negative = inhibition": "inactive: -1.38%"},
      {"smiles": "CCCC(=O)Nc1ccc2c(c1)nc1n2CCN(C2CCCCC2)C1", "Potency": "inconclusive [activator, single point]"},
      {"smiles": "Cc1cccc(-n2cnc3c(sc4nc(N5CCOCC5)c5c(c43)CCCC5)c2=O)c1", "activity, negative = inhibition": "inactive: -0.108%"},
      {"smiles": "Cc1ccc(C(=O)O/N=C(\\N)Cc2cccc3ccccc23)cc1", "Potency": "inconclusive [inhibitor, single point]"},
      {"smiles": "Cc1ccc(N/N=C(\\Cc2nc3ccccc3[nH]2)c2ccccc2)cc1", "Potency": "inconclusive [inhibitor, single point]"},
      {"smiles": "CC(C)c1ccc(/C=C/C(=O)NCCCc2ccccc2)cc1", "Potency": "inconclusive [inhibitor, single point]"},
      {"smiles": "O=C(NCCc1nc2ccccc2[nH]1)c1ccc(Cl)c([N+](=O)[O-])c1", "Potency": "inconclusive [activator, single point]"},
      {"smiles": "O=[N+]([O-])c1cc2oc3c(c2c(C=NCc2ccccc2)c1O)CCCC3", "activity, negative = inhibition": "inactive: -17.2%"},
      {"smiles": "Cc1ccc(N2CCN(c3ncccc3[N+](=O)[O-])CC2)c(C)c1", "activity, negative = inhibition": "inactive: 29.7%"},
      {"smiles": "CC(C)N=C1NN=C(c2ccc(Cl)c(Cl)c2)CS1", "Potency": "inconclusive [inhibitor, single point]"},
      {"smiles": "CC(NC(=O)c1cc(COc2cccc(C(F)(F)F)c2)on1)c1nccs1", "note": "(stereo not given)", "Potency": "inconclusive [activator, single point]"},
      {"smiles": "C/C(=N/NC(=O)C1CC1(c1ccccc1)c1ccccc1)c1cccs1", "note": "(stereo not given)", "Potency": "inconclusive [inhibitor, single point]"},
      {"smiles": "Cc1ccc(C2(COC(=O)C(C)C)CO2)c(OC(=O)C(C)C)c1", "note": "(stereo not given)", "Potency": "active: 8.91 µM"},
      {"smiles": "CC(/C=C/c1ccc2c(c1)OCO2)=N/NC(=O)c1ccncc1", "Potency": "active: 17.8 µM"},
      {"smiles": "Cc1nc2ccccc2nc1OCc1ccccc1", "Potency": "inconclusive [activator, single point]"},
      {"smiles": "O=C(N/N=C/c1cc([N+](=O)[O-])ccc1O)C12CC3CC(CC(C3)C1)C2", "Potency": "active: 0.708 µM"},
      {"smiles": "CCOc1ccc(/C=N/NC(N)=S)cc1", "Potency": "active: 10 µM"},
      {"smiles": "O=C(CCCSc1nnc(-c2cccs2)n1CC1CCCO1)c1ccccc1", "note": "(stereo not given)", "Potency": "inconclusive [inhibitor, single point]"},
      {"smiles": "Fc1ccc(N/N=C/c2ccncc2)c(F)c1", "activity, negative = inhibition": "inactive: 18.3%"},
      {"smiles": "Clc1ccc(N=C2SCCS2)cc1", "activity, negative = inhibition": "inactive: 4.32%"},
      {"smiles": "O=C(Nc1cccc(F)c1)N1CC[C@@]2(CCCN(S(=O)(=O)c3ccccc3)C2)C1", "activity, negative = inhibition": "inactive: -11.5%"},
      {"smiles": "COc1ccccc1Cn1c(/C=C/c2ccccc2)nc2ccccc21", "Potency": "active: 22.4 µM"},
      {"smiles": "Cc1nnc(NCc2n[nH]c(=O)c3ccccc23)c2ccccc12", "Potency": "inconclusive [inhibitor, single point]"},
      {"smiles": "CC(C)(C)C(=O)Nc1nnc(COc2ccc(Cl)cc2)s1", "Potency": "inconclusive [inhibitor, single point]"},
      {"smiles": "COc1ccc(/C(C)=N/NC(=S)NCCc2ccccc2)c(O)c1", "Potency": "active: 7.08 µM"},
      {"smiles": "O=C(NCCCO)C(=O)c1c(-c2ccccc2)cc2ccccn12", "activity, negative = inhibition": "inactive: -7.62%"}
    ]}
  ]
}
